Over roughly 33,000 sequences, “E-score (-0.5 to 0.5)” has its median near -0.054; the highest 2% begin near 0.35. This is one part of the list.
biological target: T1, Stb5 (UniProt P38699); experiment: PBM E-score (8-mer binding enrichment) (E-score (-0.5 to 0.5)); higher = stronger / more preferred TF binding; most listed sequences are background and not binding sites; conditions: protein concentration: 200 nM; construct: GST-full length
T1 sequence: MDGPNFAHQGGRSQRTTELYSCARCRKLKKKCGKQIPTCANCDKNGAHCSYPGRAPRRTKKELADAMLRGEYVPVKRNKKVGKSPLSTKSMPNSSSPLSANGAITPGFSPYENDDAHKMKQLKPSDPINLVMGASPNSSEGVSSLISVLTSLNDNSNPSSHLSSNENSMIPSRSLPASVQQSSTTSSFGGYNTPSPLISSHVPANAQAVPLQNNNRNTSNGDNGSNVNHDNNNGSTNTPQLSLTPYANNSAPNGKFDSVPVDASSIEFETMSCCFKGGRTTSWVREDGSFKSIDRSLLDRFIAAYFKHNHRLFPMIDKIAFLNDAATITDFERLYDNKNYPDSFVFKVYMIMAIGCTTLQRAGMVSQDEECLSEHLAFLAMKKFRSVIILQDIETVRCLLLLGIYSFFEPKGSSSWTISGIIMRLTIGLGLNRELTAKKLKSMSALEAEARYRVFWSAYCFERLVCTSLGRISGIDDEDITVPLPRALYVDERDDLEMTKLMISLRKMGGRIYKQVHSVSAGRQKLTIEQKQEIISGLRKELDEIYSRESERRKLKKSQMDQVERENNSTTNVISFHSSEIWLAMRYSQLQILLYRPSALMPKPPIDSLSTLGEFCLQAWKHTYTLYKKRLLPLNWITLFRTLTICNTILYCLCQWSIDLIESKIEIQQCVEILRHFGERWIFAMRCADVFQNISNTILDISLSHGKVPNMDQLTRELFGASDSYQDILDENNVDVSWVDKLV
Summary of the method: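 E-scores (a modified Wilcoxon-Mann-Whitney statistic) were assigned by the Universal PBM Analysis Suite to every ungapped eight-base word pooled with its reverse complement. The input came from universal all-10-mer Agilent arrays made double-stranded by primer extension and probed with GST-tagged yeast transcription factors at about 100-200 nM. Fluorescent anti-GST detected bound protein, and masliner normalised the scans.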

Row | Sequence | PBM E-score
1 | GCTCCCCC | 0.0364
2 | CCAAAAAA | -0.0145
3 | ACCACATA | 0.0101
4 | CATACGTA | -0.0461
5 | GTGATCTA | -0.191
6 | ACGCATCG | -0.0578
7 | GAACGTAC | -0.177
8 | CTCTTTAA | -0.103
9 | ATAACTCA | -0.0636
10 | TCAATTAA | -0.0317
11 | ACTCTTGA | -0.176
12 | GGGCATAA | 0.197
13 | TACCTGCA | -0.137
14 | ACCCCGCT | 0.437
15 | CACTCGGA | -0.0784
16 | GATAGATC | 0.111
17 | CCAGTTGA | -0.133
18 | GAGAAAGC | 0.0247
19 | ACTCCTGA | -0.211
20 | AACCACGT | -0.246
21 | AATCATAA | -0.157
22 | TAAGTGCA | -0.0835
23 | ATGTGGTC | -0.168
24 | AGACACTA | -0.101
25 | GATAGGGA | -0.134

Row | Sequence | PBM E-score
26 | ACCCAAAT | -0.135
27 | CCGCTACC | 0.336
28 | ATTCCAAG | -0.153
29 | GGATGCTA | -0.0173
30 | ATGTCCCA | -0.138
31 | CAGCTCGA | -0.292
32 | AAGTTGTC | -0.0935
33 | AGTCGCCG | 0.191
34 | AAAATTCT | 0.0376
35 | GAAATCAC | 0.137
36 | CGGGGATC | 0.168
37 | CTGTTCCC | 0.0484
38 | AGTACACG | -0.0595
39 | GACGCGTA | -0.174
40 | GCTGATTA | -0.0244
41 | AGAAACGG | 0.24
42 | CATACTAC | -0.0614
43 | GGTAACAA | 0.209
44 | CTTAATGC | -0.024
45 | AAACGGTG | 0.316
46 | AAACAATT | -0.225
47 | TACGCCCA | -0.144
48 | CGGTATAG | 0.179
49 | CATCCTTC | -0.0704
50 | CACCGGAG | 0.379

Row | Sequence | PBM E-score
51 | AGGGGAGC | -0.222
52 | ACAAACCC | 0.152
53 | AACAATAT | 0.133
54 | GGACGGCC | 0.188
55 | CTAATTAA | -0.204
56 | CCTTCGCC | 0.122
57 | ATGCTCAC | -0.141
58 | ACATCTCC | 0.0356
59 | ATTCGCGG | 0.171
60 | AAGTCTAA | -0.131
61 | TGTAGAAA | -0.141
62 | TAGGTAAA | 0.0206
63 | CGGGTCGC | 0.219
64 | TCTCATAA | -0.0776
65 | CAATTTAG | -0.193
66 | AGCTTCCC | -0.242
67 | AACCACTT | -0.109
68 | TGCTACAA | 0.0285
69 | CCCCTCAG | -0.107
70 | AACCTGGA | -0.291
71 | CATACAAC | -0.208
72 | CCGGATTC | 0.148
73 | CTCCTACA | -0.171
74 | TAAGATTA | -0.0216
75 | CTCGACGC | -0.0256

Row | Sequence | PBM E-score
76 | CCATCTAC | 0.0456
77 | CCAGATGG | -0.137
78 | CGGAAATC | 0.0555
79 | ACGTTCAC | -0.0597
80 | CTGTACAC | -0.0392
81 | ACTATAGC | 0.162
82 | ACCACCGC | 0.391
83 | CAATTACA | 0.0294
84 | CATAGAGA | -0.281
85 | CCGGACAG | 0.219
86 | CCCGCCTC | 0.207
87 | CCCGGAAG | 0.15
88 | AGACGCTA | -0.137
89 | AATGGCAA | -0.0129
90 | ATATTAGC | 0.123
91 | ATAGCGGC | 0.309
92 | AGGTCACG | -0.111
93 | GGTAGGAC | 0.0845
94 | CCTAGCAC | -0.158
95 | AATGACAC | -0.0205
96 | ATAGGGAA | 0.0562
97 | GGCACTCA | -0.176
98 | ATGGCTCG | -0.214
99 | CAGCATGC | -0.169
100 | TGCGCGCA | -0.13

Row | Sequence | PBM E-score
101 | CTCACTCA | -0.191
102 | ATCCTTCC | -0.143
103 | CGACAAGA | -0.00104
104 | CACCGCTG | 0.405
105 | AGAACTAC | -0.0377
106 | GAAGCCAA | -0.128
107 | ATTAATGC | -0.0156
108 | CGCAAAGA | 0.016
109 | GCTGCTCA | -0.16
110 | ATGGATCG | 0.0726
111 | CACAAGAG | -0.132
112 | GAATGCAC | -0.0135
113 | ACCCGCTC | 0.246
114 | AGGATCAT | -0.23
115 | AATCGCCC | -0.00317
116 | GCGGGGTA | 0.345
117 | AGCCCGGG | 0.189
118 | GTCCTGAA | -0.18
119 | AATCCAGA | -0.156
120 | ATGCGGCG | 0.282
121 | CAGAAGAA | -0.143
122 | AAACTGTT | -0.13
123 | AACTCGTG | -0.141
124 | CTGGACAC | -0.213
125 | AACATTCT | -0.214

Row | Sequence | PBM E-score
126 | AGCAACTG | -0.144
127 | ACTAAAAT | -0.0486
128 | TCGGACGA | 0.0643
129 | CTATTCCA | 0.0398
130 | AAGCACGT | -0.252
131 | CGGTCATA | 0.448
132 | ATTTGGAC | -0.0228
133 | GCTACTAC | 0.165
134 | TAGCAAGA | -0.0573
135 | GCAATCAA | -0.1
136 | ATTACCCC | 0.362
137 | CCGCGACA | 0.201
138 | CTAAATAA | 0.163
139 | GGTGAGGA | 0.0241
140 | TACAATGA | -0.0637
141 | TGAAGTAA | -0.142
142 | AAAAGATC | -0.212
143 | AGCGCCAC | 0.162
144 | ATCAGGAG | -0.105
145 | GAGCTCCC | -0.168
146 | ACTTAACC | -0.0144
147 | CGGCGACC | 0.188
148 | AGCTTCAC | -0.235
149 | CTTATTCC | 0.197
150 | TACCTGGA | -0.174

Row | Sequence | PBM E-score
151 | ATACAGAC | -0.062
152 | ATAGAGAC | -0.165
153 | GAGATAAC | 0.181
154 | GTAGATCA | -0.062
155 | CGAGTAGC | 0.0129
156 | GTAAGTAA | -0.0169
157 | AGCCTAAA | -0.149
158 | ATCAGGTA | 0.00741
159 | CCCTGTCG | -0.0966
160 | ATAGTGAG | -0.158
161 | AAGTGGAC | -0.13
162 | CACATGCA | -0.208
163 | AAGGGGAC | -0.0413
164 | ACATGCGC | -0.0638
165 | AATAAATT | 0.0482
166 | TGCTATAA | 0.0448
167 | GTAATCTA | -0.0418
168 | CACCATGG | -0.183
169 | ACGCGCTC | -0.136
170 | ATCTACAA | -0.0956
171 | ATGAAAAA | 0.00524
172 | AAGGACGC | -0.183
